Experimental data reported in PubChem BioAssay AID488969 (Vanderbilt High Throughput Screening Facility, 2010).
The full ranking holds about 110,000 compounds; the median of “z-score” is about -0.1, and the highest 2% start at about 2. The list shows a part of the results. Calls of active or inactive are those of the source.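 How the source made its calls: active means z-score in the third read window above 3 or below -3; inactive means the rest.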

target: Metabotropic glutamate receptor 8 (Rattus norvegicus) (UniProt P70579); experiment: mGluR8 Gi/Go-coupled signaling modulation – cell-based, rat, thallium flux, HTS, primary screen (AID 488969); details: HEK293 rat mGluR8, GIRK (G protein-gated inwardly rectifying potassium channel) thallium flux, FluoZin2; at 10 µM; stronger effect = higher value; submaximal glutamate (EC20) added with thallium
Sequence of UniProt P70579 (P70579 whole entry, looked up): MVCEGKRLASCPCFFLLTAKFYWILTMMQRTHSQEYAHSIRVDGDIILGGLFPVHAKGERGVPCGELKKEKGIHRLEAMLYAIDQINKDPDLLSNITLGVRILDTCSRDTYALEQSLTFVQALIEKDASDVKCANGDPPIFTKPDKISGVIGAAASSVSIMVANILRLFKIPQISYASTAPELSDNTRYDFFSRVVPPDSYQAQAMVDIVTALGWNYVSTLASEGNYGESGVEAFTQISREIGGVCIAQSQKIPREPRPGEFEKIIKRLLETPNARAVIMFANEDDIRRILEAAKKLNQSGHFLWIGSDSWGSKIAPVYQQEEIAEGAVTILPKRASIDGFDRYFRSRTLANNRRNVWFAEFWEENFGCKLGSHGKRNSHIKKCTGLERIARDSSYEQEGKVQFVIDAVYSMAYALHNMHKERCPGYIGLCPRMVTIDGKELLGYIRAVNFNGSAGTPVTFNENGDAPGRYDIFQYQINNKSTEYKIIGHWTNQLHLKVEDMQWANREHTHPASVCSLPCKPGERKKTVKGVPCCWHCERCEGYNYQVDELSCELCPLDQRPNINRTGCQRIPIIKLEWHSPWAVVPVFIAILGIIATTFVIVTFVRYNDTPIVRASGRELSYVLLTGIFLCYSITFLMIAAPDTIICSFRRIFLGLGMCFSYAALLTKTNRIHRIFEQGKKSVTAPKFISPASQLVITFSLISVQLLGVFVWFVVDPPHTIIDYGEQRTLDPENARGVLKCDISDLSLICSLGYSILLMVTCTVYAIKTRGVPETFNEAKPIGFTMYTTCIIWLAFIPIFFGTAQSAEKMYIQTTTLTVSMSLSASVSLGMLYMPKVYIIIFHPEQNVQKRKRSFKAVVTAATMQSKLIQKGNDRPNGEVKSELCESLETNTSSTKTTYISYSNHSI

Row | SMILES | z-score
1 | CCC(=O)Nc1ncc2c(n1)CC(c1ccco1)CC2=O (stereo unspecified) | 1.34
2 | O=C(Nc1ccc(Cl)c(Cl)c1)O/N=C/c1ccncc1 | 0.0392
3 | COc1cc(OC)nc(NC(=O)CSc2nnc(-c3ccccc3)n2C2CCCCC2)n1 | -0.277
4 | CCOC(=O)CSc1nc(C)c2cc(OC)ccc2n1 | active: 6.89
5 | CCCCNC(=O)c1onc(CSc2cccc(F)c2)c1C(=O)O | -0.276
6 | COc1ccc(/C=N/N=C2/NC(=O)C(c3ccccc3)S2)c(OC)c1 (stereo unspecified) | -0.166
7 | O=C(CCn1cccc1)NCc1ccc(Cl)cc1 | 0.111
8 | Cc1ccc(NC(=O)NC2CCN(S(=O)(=O)c3ccc(F)cc3)CC2)cc1 | 0.564
9 | CCOC(=O)CS(=O)(=O)c1nc(-c2ccccc2)cc(C(F)(F)F)n1 | -1
10 | CS(=O)(=O)Nc1ccccc1C(=O)Nc1cccc(Cl)c1 | -0.243
11 | COc1ccc(CCn2c(-c3cccc([N+](=O)[O-])c3)nc3nc4ccccc4nc32)cc1OC | -0.0921
12 | O=C(O)CNS(=O)(=O)c1cc(Cl)c(Cl)cc1Cl | -0.632
13 | Cc1cccc2cc(C#N)c(SCC(=O)Nc3ccccc3N3CCOCC3)nc12 | -0.0912
14 | CC(=O)c1ccc(NC(=O)COC(=O)CCN2C(=O)c3cccc([N+](=O)[O-])c3C2=O)cc1 | -0.201
15 | CC(C)c1ccc(NS(=O)(=O)c2ccc3[nH]cc(C(=O)N4CCC(C(N)=O)CC4)c(=O)c3c2)cc1 | 0.0959
16 | COc1ccc(-c2nc3c(c(=O)n(C)c(=O)n3C)n2CC2CC(c3ccccc3)=NO2)cc1OC (stereo unspecified) | 2.08
17 | CC(=O)Nc1c(C)cc(S(C)(=O)=O)cc1C | 0.226
18 | O=C(CN1C(=O)C2C3C=CC(C3)C2C1=O)Nc1ccc2nccnc2c1 (stereo unspecified) | 0.0363
19 | O=C(c1cc2c(s1)-c1ccccc1S(=O)(=O)C2)N1CCN(Cc2ccccc2)CC1 | -0.0146
20 | O=C(N/N=C/c1cccs1)c1ccc(NC(=O)c2ccccc2Cl)cc1 | -0.183
21 | CC(C)OC(=O)CSc1nc2c(c(C3CC=CCC3)c1C#N)CCC2 (stereo unspecified) | 0.0295
22 | O=C1Nc2ccccc2/C1=N\c1sc2c(c1C(=O)Nc1ccccc1)CCCC2 | 0.907
23 | COc1ccc(C2C(C(=O)O)CCC(=O)N2c2ccc(OC)cc2)cc1 (stereo unspecified) | -0.399

Row | SMILES | z-score
24 | Cc1ccc2cc(C#N)c(SCC(=O)NCC3CCCO3)nc2c1 (stereo unspecified) | 0.016
25 | O=C(Nc1nc2c(Cl)cccc2s1)c1ccc(Br)o1 | 0.452
26 | O=C(Nc1cccc(F)c1)c1cc(S(=O)(=O)N2CCC(C(=O)O)CC2)ccc1F | -0.145
27 | Cc1noc(NS(=O)(=O)c2ccc(NC(=O)Nc3ccc(Cl)c(Cl)c3)cc2)c1C | -0.154
28 | Fc1ccccc1NC(=S)N1CCN(c2ccccn2)CC1 | -0.138
29 | COC(=O)C1C(=O)C=C(Nc2ccc(F)cc2F)CC1c1ccc(OC)cc1 (stereo unspecified) | -0.711
30 | O=C(Nc1ccc(S(=O)(=O)N2CCCCC2)cc1)c1cnccn1 | -0.589
31 | Cc1ccc2[nH]c(=O)c(COC(=O)C3CCCO3)cc2c1 (stereo unspecified) | 0.197
32 | COC(=O)c1ccc(NC(=S)NC2CC3CCC2C3)cc1 (stereo unspecified) | 1
33 | Cc1ccc2c(CSc3nc4nc(C)cc(C)n4n3)cc(=O)oc2c1 | -0.245
34 | CCOC(=O)C1=C(C)NC(=O)C(C(N)=O)C12CCCCC2 (stereo unspecified) | 0.437
35 | CCc1cccc(C)c1NC(=O)CN1C(=O)c2ccccc2S1(=O)=O | 0.297
36 | O=C(NC(Cc1ccccc1)c1ccc2c(c1)OCCCO2)c1ccccc1F (stereo unspecified) | 0.0517
37 | CC(C)CNC(=O)C1CCCN(S(=O)(=O)c2ccc(-n3cnnn3)cc2)C1 (stereo unspecified) | -0.0594
38 | CC(C)Oc1ccccc1C1CC(=O)Nc2cc3c(cc21)OCO3 (stereo unspecified) | -0.905
39 | O=C(c1ccccc1)c1nccc2ccccc12 | -0.111
40 | CCOc1cccc(OCCOc2ccccc2[N+](=O)[O-])c1 | -0.153
41 | C#CC1(O)CC(C)NCC1(C)CCC#N (stereo unspecified) | -0.128
42 | COc1ccc(C2C=C(C)Nc3nc(SC)nn32)cc1 (stereo unspecified) | -0.206
43 | COc1cc2c(cc1OC)C(C1C(=O)CC(C)CC1=O)N(C(=O)CCl)CC2 (stereo unspecified) | 0.249
44 | Cc1ccccc1SCC(=O)OCC(=O)Nc1sccc1C(N)=O | -0.224
45 | O=C(NCc1cccs1)NC1CCCCC1 | -0.103
46 | COc1ccc(F)cc1S(=O)(=O)N1CCC(C(N)=O)CC1 | -0.254

Row | SMILES | z-score
47 | CC(C)(C)c1ccc(/C=C/C(=O)N2CCOCC2)cc1 | -0.28
48 | CCCCCCc1ccc(-c2ncc(N)cn2)cc1 | 0.186
49 | O=C(O)C1CC=CCC1C(=O)N1CCCC1 (stereo unspecified) | 0.135
50 | CCc1ccccc1NC(=O)CSc1n[nH]c(C)c1[N+](=O)[O-] | -0.481
51 | COc1ccc(S(=O)(=O)NC(CC(=O)NCc2ccco2)C(C)C)cc1 (stereo unspecified) | 0.189
52 | CCn1c(=N)n(CC(=O)c2ccc(OC)c(OC)c2)c2ccccc21 | 0.42
53 | CC(=O)Nc1c(-c2ccccc2)nc2ncccn12 | 2.69
54 | NC(=O)c1ccsc1NC(=O)COC(=O)Cc1ccsc1 | -0.111
55 | CC1(C)Cc2ccccc2C(NNC(=O)c2ccncc2)=N1 | -0.178
56 | Cc1ccccc1Nc1c(-c2ccncc2)nc2ccc(Br)cn12 | -0.114
57 | Cc1nc2ccc(Cl)cc2c(-c2ccccc2Cl)c1CC(=O)O | -0.187
58 | Cc1ccc(S(=O)(=O)NCC(=O)NCc2ccncc2)cc1 | 0.0563
59 | CC(c1cccnc1)N(CCN(C)C)C(=O)Nc1ccc(Cl)cc1 (stereo unspecified) | -0.337
60 | Cc1ccc(C)n1NC(=O)c1ccccc1O | 0.41
61 | CCCCNS(=O)(=O)c1ccc(OC)cc1 | -0.0131
62 | Cn1c(=O)c(-c2cc(Br)ccc2N)nc2ccccc21 | -0.264
63 | Cc1cc(NC(=O)CSc2nc3ccccc3c(=O)n2Cc2ccccc2)no1 | active: 4.05
64 | CCOc1ccc(Br)cc1/C=N/O | -0.187
65 | CCc1nnc(NC(=O)[C@@H]2CCCN2S(=O)(=O)c2ccc3c(c2)OCCO3)s1 | 0.228
66 | O=C(Nc1ccccc1N1CCN(C(=O)c2ccc(Cl)cc2)CC1)c1cc(Br)ccc1Cl | -0.323
67 | COc1ccc(C(=O)Nc2c(Cl)cc(Cl)cc2C(=O)N2CCC(C)CC2)cc1 | -0.343
68 | COC(=O)c1ccc(CSc2nc3ccccc3s2)o1 | -0.313
69 | CS(=O)(=O)N(Cc1ccccc1)c1ccccc1C(=O)O | -0.0382

Row | SMILES | z-score
70 | Cc1csc(SC(C)C(=O)Nc2ccc(Cl)cn2)n1 (stereo unspecified) | 0.168
71 | O=C(c1cc2cc(Br)ccc2oc1=O)N1CCN(c2ccccn2)CC1 | -0.629
72 | Cn1c(=O)c2c(ncn2CC(=O)N2CCOCC2)n(C)c1=O | 0.0191
73 | COc1ccc(-c2noc(CCC(=O)NCCCN3CCC(Cc4ccccc4)CC3)n2)cc1 | 0.241
74 | CCCCS(=O)(=O)/C=C/[C@H]1[C@H](S(=O)(=O)CCCC)[C@H]2C=C[C@@H]1C2 | -0.0773
75 | CCOC(=O)N1CCC(N2Cc3cccc(C(=O)Nc4ccc(F)cc4)c3C2=O)CC1 | 0.0504
76 | C=CCn1cc(C(=O)NCCOC)c(=O)c2cc(S(=O)(=O)N(CC)CC)ccc21 | -0.181
77 | CSCCC(NS(=O)(=O)c1ccc(Cl)cc1)C(=O)OCC(=O)NC12CC3CC(CC(C3)C1)C2 (stereo unspecified) | 0.328
78 | COC(=O)c1c(NC(=O)c2ccccc2)sc(Cc2ccccc2)c1C | -0.0779
79 | COc1ccc(NC(=O)Cn2nc(C(F)(F)F)c3c2CCCC3)c(OC)c1 | -0.251
80 | Cc1cc(C)nc(NC(=O)c2cnc3sccn3c2=O)n1 | -0.0765
81 | COc1ccc(C2C(C(=O)N3CCOCC3)=C(C)NC3=C2C(=O)CC(C)(C)C3)cc1O (stereo unspecified) | -0.281
82 | CCOC(=O)C1CCN(C(=O)CSc2cc(=O)n(CC)c3ccccc23)CC1 | 0.042
83 | CCN(CC)Cc1c(O)c(Cl)cc2c3c(c(=O)oc12)CCCC3 | -0.137
84 | Cc1ccc(S(=O)(=O)Nc2ccc(NC(=O)CN3CCCCC3)cc2)cc1 | 0.237
85 | CC(=O)Nc1cc(C(F)(F)F)ccc1N1CCOCC1 | 0.184
86 | COc1cc(C(C(=O)NC(C)(C)C)N(C(=O)CNC(=O)c2cccs2)c2ccccc2)cc(OC)c1OC (stereo unspecified) | -0.83
87 | CCCCn1c(SCc2ncc(-c3ccccc3)o2)nc2cc(S(N)(=O)=O)ccc21 | 0.216
88 | CC(=O)Nc1ccc(OCC(=O)c2cc(C)ccc2C)cc1 | -0.144
89 | O=C(COC(=O)c1ccccc1)NCC1CCCO1 (stereo unspecified) | -0.112
90 | CCCCCCCCc1nc(=S)[nH][nH]1 | active: 15.3
91 | Cc1cc(C)nc(NC(=O)c2cc(-c3ccc(C)s3)nc3ccccc23)c1 | -0.437
92 | CCN(CC(=O)NCCc1ccc(S(N)(=O)=O)cc1)Cc1nc2ccccc2c(=O)[nH]1 | -0.0392

Row | SMILES | z-score
93 | Cc1ccc(-c2nn3c(C)nnc3s2)cc1NCc1c(F)cccc1Cl | 1.04
94 | Cn1ncc(C#N)c1/N=C/N1CCCCCC1 | 0.0919
95 | N#Cc1ccccc1NC(=O)CSc1nnc(-c2ccccc2O)n1-c1ccccc1 | -0.752
96 | Cc1ccc(CNC(=O)Cc2nc3nc(C)cc(C)n3n2)cc1 | -0.0287
97 | O=C(NCc1cccnc1)C(=O)NCC(c1ccco1)N1CCN(c2ccccc2F)CC1 (stereo unspecified) | -0.0446
98 | CCCC(=O)n1nc(-c2ccc(Cl)cc2)nc1SC | -0.0675
99 | O=C(C1CCN(C2CC(=O)N(c3cccc(Cl)c3)C2=O)CC1)N1CCCC1 (stereo unspecified) | -0.132
100 | CCNC(=O)NC(=O)C(C)OC(=O)C1CCN(S(=O)(=O)c2ccc(C)c(C)c2)CC1 (stereo unspecified) | -0.143
101 | Nc1nc(N2CCOCC2)cc(=O)[nH]1 | 0.0966
102 | CCOC(=O)c1cc(C)n(Cc2cccc(OC)c2OC)c1C | -0.234
103 | CC1CC1C(=O)OCC(=O)NCc1ccc(Cl)cc1Cl (stereo unspecified) | -0.0696
104 | Cc1ccnc(NC(=O)CCC(=O)N(CC(=O)NCCc2ccccc2)Cc2ccco2)c1 | -1.16
105 | O=C(NC1CCCC1)c1cccc(NC(=O)c2ccco2)c1 | 0.253
106 | COc1ccc(C2CC(c3cccc(C)c3)n3ncnc3N2)cc1 (stereo unspecified) | 0.0466
107 | O=C1c2ccccc2C(Nc2ccc(S(=O)(=O)N3CCCCC3)cc2)N1Cc1ccco1 (stereo unspecified) | 0.0215
108 | CCOC(=O)c1ccc(NC(=O)N2CCCCC2)cc1 | 0.0782
109 | O=C(CCNC(=O)c1ccccc1Cl)Nc1nc(-c2ccc(F)cc2)cs1 | -0.467
110 | Cn1c(SCC(=O)NCCc2ccccc2)nnc1-c1ccncc1 | -0.197
111 | Cc1cc2n(n1)C(c1c[nH]c3ccccc13)Nc1ccccc1-2 (stereo unspecified) | 0.517
